In PMC4336329 (PLoS ONE, 2015):
Among all 310,000 compounds or so, about 14,000 (4.5%) showed an effect of 50% or more. Effects have a minus sign here. The list shows a part of the results.

Biological target: human ether-à-go-go-related gene (hERG) potassium channel (human, UniProt Q12809)
Assay: primary screen, population patch clamp on CHO cells stably expressing hERG
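Note: peak tail current of the secondary pulse compared with the same well before compound.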

Sequence of human ether-à-go-go-related gene (hERG) potassium channel (Q12809 whole entry, looked up): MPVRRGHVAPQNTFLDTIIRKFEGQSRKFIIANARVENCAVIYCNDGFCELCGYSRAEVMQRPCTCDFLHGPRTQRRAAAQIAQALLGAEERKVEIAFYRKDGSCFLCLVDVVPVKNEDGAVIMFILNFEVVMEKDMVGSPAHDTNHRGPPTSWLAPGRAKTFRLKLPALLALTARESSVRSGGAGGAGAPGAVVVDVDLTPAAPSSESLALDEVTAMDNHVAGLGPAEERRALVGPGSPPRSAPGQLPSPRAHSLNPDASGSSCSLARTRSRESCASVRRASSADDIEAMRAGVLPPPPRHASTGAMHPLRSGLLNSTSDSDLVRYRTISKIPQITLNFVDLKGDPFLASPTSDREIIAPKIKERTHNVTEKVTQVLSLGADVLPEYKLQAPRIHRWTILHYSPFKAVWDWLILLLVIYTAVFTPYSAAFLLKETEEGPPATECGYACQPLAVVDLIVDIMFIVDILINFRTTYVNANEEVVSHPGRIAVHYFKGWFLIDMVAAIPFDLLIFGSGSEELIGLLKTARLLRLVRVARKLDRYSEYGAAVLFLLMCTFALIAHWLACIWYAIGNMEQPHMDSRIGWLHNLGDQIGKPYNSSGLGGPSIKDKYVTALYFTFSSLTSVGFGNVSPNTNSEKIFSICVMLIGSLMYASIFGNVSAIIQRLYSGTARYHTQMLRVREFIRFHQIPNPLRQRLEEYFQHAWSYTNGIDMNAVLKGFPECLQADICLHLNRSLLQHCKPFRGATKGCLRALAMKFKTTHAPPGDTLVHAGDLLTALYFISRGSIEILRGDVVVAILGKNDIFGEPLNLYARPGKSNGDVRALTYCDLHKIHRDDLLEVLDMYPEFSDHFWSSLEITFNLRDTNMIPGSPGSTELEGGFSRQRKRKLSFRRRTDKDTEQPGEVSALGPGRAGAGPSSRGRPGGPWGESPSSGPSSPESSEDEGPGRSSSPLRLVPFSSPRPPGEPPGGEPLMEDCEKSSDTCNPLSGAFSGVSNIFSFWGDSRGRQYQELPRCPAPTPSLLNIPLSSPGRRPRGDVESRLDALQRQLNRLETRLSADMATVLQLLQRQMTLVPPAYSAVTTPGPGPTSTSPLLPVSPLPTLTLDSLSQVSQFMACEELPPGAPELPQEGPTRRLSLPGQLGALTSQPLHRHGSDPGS

SMILES	hERG current change (%, negative = inhibition) at 10uM
Cc1ccc(-c2nn(-c3ccccc3)cc2C(=O)N2CCN(C3CCS(=O)(=O)C3)CC2)cc1 (centres unmarked)	-68.8%
CCC(C(=O)NC(C)(C)C)N(Cc1ccco1)C(=O)Cn1nnc(-c2ccc(F)cc2)n1 (centres unmarked)	-42.2%
Cn1cccc1Cc1nnc(SCC(=O)N2CCOCC2)n1CCc1ccccc1	-0.335%
O=C(COc1ccccc1C(=O)Nc1ccccc1)c1ccc(F)cc1	6.1%
COCCN(C(=O)COC(=O)/C=C/c1cccs1)c1c(N)n(Cc2ccccc2)c(=O)[nH]c1=O	25.1%
O=C(Nc1ccc(Br)cc1)c1ccc2ncsc2c1	5.07%
CCCCN1C(=O)C(=O)N(CC(=O)Nc2cc(OCC)c(N3CCOCC3)cc2OCC)C1=O	-27%
O=[N+]([O-])c1ccc(Oc2ccc(S(=O)(=O)N3CCCCC3)cc2)cc1	-31.9%
COc1ccc(C(CC(=O)c2ccccc2)C2CCCCC2=O)cc1 (centres unmarked)	-2.89%
COC(=O)COc1ccc(S(=O)(=O)NCc2cccnc2)cc1C	15.3%
CCCCCSc1nc(N2CCOCC2)c2c(c1C#N)CC(C)(C)OC2	-2.7%
S=C(NC1CCCC1)N1CCN(c2ncccn2)CC1	-19.3%
CCCCC1CCC(C(=O)Nc2ccc(N3CCOCC3)cc2N2CCOCC2)CC1 (centres unmarked)	-33.9%
COC(=O)c1[nH]c2cc(OC)ccc2c1NC(=O)c1c(F)cccc1F	2.79%
COc1ccc([N+](=O)[O-])cc1NC(=S)NC(=O)C(C)(C)C	7.53%
C=CCNC(=O)c1onc(CSc2cccc3ccccc23)c1C(=O)O	6.34%
c1cn(-c2ncnc3sc4c(c23)CCCC4)cn1	-3.98%
Cn1cc(C(=O)Nc2ccc(Cl)c(Cl)c2)cn1	-31.9%
Cc1ccc(CN2C(=O)CNC2=S)cc1	9.68%

SMILES	hERG current change (%, negative = inhibition) at 10uM
Cc1ccc(C(=O)Nc2ccccc2N2CCCCC2)cc1[N+](=O)[O-]	-1.26%
Cc1cc(OC(=O)c2ccc3ccccc3c2)c([N+](=O)[O-])c(=O)[nH]1	22.1%
CC1(C)CN=C(Nc2nc3ccccc3s2)S1	-9.65%
O=C(c1ccc(N2CCOCC2)c([N+](=O)[O-])c1)N1CCCC(C(F)(F)F)C1 (centres unmarked)	2.23%
CC(C)(CNC(=O)CCC1CCCC1)CNC(=O)CCC1CCCC1	-27.9%
O=C(CN1C(=O)/C(=C/c2ccccc2F)Sc2ccccc21)NCc1cccnc1	-30.7%
COC(=O)Cc1ccc(OC(=O)CCS(=O)(=O)c2ccc(Cl)cc2)cc1	22%
Cc1cc(C)c(S(=O)(=O)N2CCCOC2CNC(=O)C(=O)NCc2ccccn2)c(C)c1 (centres unmarked)	-11.9%
CCCOc1ccc(CNC(=S)NCc2ccc(OC(C)C)cc2)cc1	3.51%
CN(CCO)c1ccc(/C=N/Nc2nncc3ccccc23)cc1	-14.3%
O=C1NC(=O)C(=Cc2ccc(Sc3ccccc3)o2)C(=O)N1	10.4%
COc1ccc(C2C(C#N)=C(C)NC(C)=C2C#N)c(OC)c1	-3.09%
NC1=NC(=Nc2ccccc2)c2ccccc21	8.33%
Cc1cc(C)cc(OCC(=O)O/N=C(\N)c2ccccn2)c1	-6.54%
O=C(CSc1ncnc2c1cnn2-c1ccc(F)cc1)NCC1CCCO1 (centres unmarked)	13.7%
O=C(NCCCN1CCCC1)C1CCC(=O)N1C1CCCCC1 (centres unmarked)	12.9%
COc1ccccc1-c1nnc(C2CCN(S(=O)(=O)c3ccccc3[N+](=O)[O-])CC2)o1	-45.2%
CCn1c(=O)c(C(=O)NNC(=O)c2ccccc2Cl)c(O)c2ccccc21	7.09%
O=C(NCc1ccco1)c1ccccc1-c1ccc(C(F)(F)F)cc1	-2.99%

SMILES	hERG current change (%, negative = inhibition) at 10uM
COc1ccc(CNC(=O)CN(C(=O)CCC(=O)Nc2ccccn2)c2ccc(C)cc2)cc1	-33.7%
OCC1CCCCN1C(=S)Nc1ccc(Cl)cc1Cl (centres unmarked)	11.8%
Cc1cc(=O)oc2cc(OCC(O)Cn3ccnc3)ccc12 (centres unmarked)	9.78%
CCOc1ccc(S(=O)(=O)NCCC(=O)NC(C)CCc2ccccc2)cc1 (centres unmarked)	-8.42%
COc1ccc2nc(SCC(=O)NC3CC3)c(C#N)cc2c1	12.6%
O=C(CN1CCN(S(=O)(=O)c2ccc(Br)cc2)CC1)Nc1ccccc1C(=O)c1ccccc1	1.26%
CC1(C)C2CCC1(C)C(NCC(O)COc1ccc(C#N)cc1)C2.O=C(O)C(=O)O (centres unmarked)	-45.1%
O=C1Nc2ccccc2C1=Nc1cccc([N+](=O)[O-])c1	21.8%
Nc1cc(=O)[nH]c(SCC(=O)Nc2ccc(S(=O)(=O)N3CCOCC3)cc2)n1	-6.65%
O=C(CSc1nnc(NC(=O)c2ccco2)s1)Nc1ccccc1F	17.7%
CCC(C)C(NC(=O)C1CCC(C)CC1)C(=O)NCCCN1CCCCC1CC (centres unmarked)	-37.5%
Cc1cccc(N2CC(C(=O)Nc3nnc(SCC(=O)N4CCOCC4)s3)CC2=O)c1 (centres unmarked)	9.3%
C=CCOc1cccc(C(=O)Nc2ncn[nH]2)c1	13.9%
CCNc1nc(NC(C)C)nc(SCCOC(=O)c2ccccc2)n1	-33.7%
COc1ccc2c(c1OC)C(=O)OC2C1c2c(cc3c(c2OC)OCO3)CCN1C.Cl.O (centres unmarked)	-13.7%
Cc1nn(-c2ccccc2)c(N2CCCC2)c1/C=C1\N=C(c2ccc(OC(C)C)cc2)OC1=O	17.5%
Cn1c(=O)n(C)c2cc(/C=N/NC(=O)c3cc4cc(Br)ccc4o3)ccc21	-3.8%
CCOC(=O)C1(Cc2cccc(F)c2)CCN(C(=O)c2cscn2)CC1	-12.7%
